According to PubChem BioAssay AID1963576 (National Center for Advancing Translational Sciences (NCATS), 2024):
Hit rate of the full screen: of about 46,000 compounds, about 60 (0.1%) were called active. Not shown: some 3% with an inconclusive outcome. Calls come from the whole dose curve; as a rule, active = well fitted inhibition curve with a large enough effect; inconclusive = small, poorly fitted or top-dose-only effect; inactive = no such curve, though single readings can be large or run the other way. Some of the results follow.

test: Primary qHTS assay for Inhibitors of ovarian cancer metastasis using an organotypic tumor microenvironment (TME) model.; note: nearly all actives have a fitted effect of over 65% in size;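 for activity change, negative = inhibition: plate controls were DMSO wells for no effect and tomatine positive control wells for full effect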; settings: SKOV3ip1-GFP adhesion/invasion on 3D omental model, fluorescence; series mostly up to 45.8 µM; activity change, negative = inhibition: at the top concentration
Procedure, shortened: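 Adhesion/invasion was scored as fixed GFP-labeled SKOV3ip1 cell counts (488/509 nm), normalized to DMSO and tomatine controls. Cancer cells in serum-free medium, with four compound doses (0.36-46 umol/L), sat 2 hr at RT then 16 hr at 37 C on a 48 hr fibroblast/mesothelial/ECM culture.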

outcome, inactive:
O=S(=O)(Nc1ccc(-c2ccc(N3CCCC3)nn2)cc1)c1ccc(C(F)(F)F)cc1
Cc1cc(C)cc(OC(=O)c2cc(-c3ccc(Cl)cc3)on2)c1
Cc1cc(=O)n(Cc2ccc(F)cc2Cl)c2c1c(C)nn2C
CCN1CCN(C(=O)c2cnn(-c3ccc(F)cc3F)c2C2CCN(C(=O)OC(C)(C)C)CC2)CC1
COc1ccc(OC)c(NC(=O)c2cnc(Nc3ccc(C)c(Cl)c3)c3ccccc23)c1
CC1CCC(N2CC(=O)N(CCC3=CCCCC3)C(c3ccc(F)cc3)C2=O)CC1 (configuration not stated)
CC(C)(C)OC(=O)N1CCC(c2c(C(=O)N3CCN(c4ccccc4F)CC3)cnn2-c2ccccc2Cl)CC1
CC1=C(C(=O)Nc2ccc(Cl)cc2)C(c2cccs2)n2nc(SCc3cccc(C)c3)nc2N1 (configuration not stated)
CCC(=O)N1CCc2cc(Br)cc(S(=O)(=O)N3CCC(C(=O)Nc4ccccc4F)CC3)c21
CCCCCOc1ccc(Cn2c(=O)oc3ccc(C)cc32)cc1OC
O=c1c(NCc2ccccc2Cl)nccn1-c1ccccc1
CC(=O)N1CCc2cc(S(=O)(=O)NC(CC(C)C)C(=O)NCc3ccccc3Cl)ccc21 (configuration not stated)
CCCOc1ccc(NC(=O)CC2C(=O)N(c3ccc(C)cc3)C(=O)N2CCc2ccncc2)cc1 (configuration not stated)
O=C(Cn1ccn(-c2ccc(F)cc2)c(=O)c1=O)Nc1ccccc1C(F)(F)F
O=C1CC(c2cc(F)cc(F)c2)c2cc3c(cc2N1)OCO3 (configuration not stated)
Cc1cccc(-n2c(N)cc(=O)nc2SCC(=O)Nc2ccc(F)cc2)c1C
Cc1oc(-c2ccc(C(=O)NCCN(C)C)cc2)nc1CS(=O)(=O)c1ccccc1
Cc1ccc(C(=O)NCC(=O)OCc2cc(=O)n3ccsc3n2)cc1
Cc1ccccc1CNC(=O)c1oc2c(c1C)-c1nn(Cc3ccc(Cl)cc3)cc1CC2
COC(=O)CSc1nc2sc3c(c2c(=O)n1-c1ccc(C)cc1)CC(C(C)C)OC3 (configuration not stated)
COC(=O)c1ccccc1NC(=O)c1cnn(-c2ccc(F)cc2)c1-n1cccc1
CCOc1ccc(-n2nc(CO)c(C(=O)NCc3ccccn3)n2)cc1
Cc1ccc(CN2C(=O)c3ccccc3Sc3ccc(C(=O)NCc4ccco4)cc32)cc1
Cc1ccc(S(=O)(=O)N(CC(O)Cn2c3ccccc3c3ccccc32)c2cccc(C(=O)N(C)C)c2)cc1 (configuration not stated)
Cc1cc(C)cc(NC(=O)Cn2c(=O)n(C(C)C)c(=O)c3oc4ccccc4c32)c1
Cc1ccc(-c2nc3ccccn3c2Nc2ccc3c(c2)OCCO3)s1
COc1ccc(NC(=O)C2=C(C)Nc3ncnn3C2c2ccc(C)o2)cc1 (configuration not stated)
Cc1oc2ncnc(N3CCOCC3)c2c1C(=O)N1CCN(c2cccc(C(F)(F)F)c2)CC1
COc1cccc(-c2ccnc3c(-c4ccc(F)cc4)c(C)nn23)c1
CCCn1c(=N)c(C(=O)NCc2cccnc2)cc2c(=O)n3cccc(C)c3nc21
COc1ccc(/C=C/C(=O)N2CCC(c3nc4ccccc4o3)CC2)cc1OC
COc1ccc(OCC(=O)N2CCN(C(=O)c3cc(OC)c(OC)c(OC)c3)CC2)cc1
Cc1cc(C)n2c(Nc3ccccc3C)c(-c3cccs3)nc2n1
COc1cccc(C(=O)Nc2ccc(-n3nncc3-c3ccc(Br)cc3)cc2)c1OC
CCOc1ccc(C2C=C(c3cccc(OC)c3)Nc3nnnn32)cc1 (configuration not stated)
Cc1ccc(CNC(=O)CSc2c3c(nc4ccc(Cl)cc24)CCCC3)cc1

Activity change, negative = inhibition, inactive:
Cc1cccc(-c2nc(CCNC(=O)c3ccc(Br)o3)cs2)c1 -8.57%
O=C(NCCCN1CCN(c2ccc(F)cc2)CC1)c1cc2c(Cl)nc3ccccc3c2s1 4.08%
CC(C)c1ccc(-c2noc(SCC(=O)N3CCCCC3C)n2)cc1 (configuration not stated) 8.76%
CC1CCc2onc(C(=O)N3CCN(c4ccc(F)cc4)CC3)c2C1 (configuration not stated) -23.8%
CCCCCN1C(C(=O)c2ccccc2)=C(NC(=O)c2ccc(C)cc2)c2ccccc2S1(=O)=O 2.25%
CCN(CC)C(=O)Cn1c(=O)n(-c2ccc(C)c(C)c2)c(=O)c2c(C)c(C(=O)N(CC)CC)sc21 -1.81%
CC(=O)c1sc(NC(=O)c2c(-c3ccccc3)c(-c3ccccc3)nn(C)c2=O)nc1C 28.2%
CCOc1ccc(NC(=O)c2c(NCc3cccnc3)sc3c2CCC(C)C3)cc1 (configuration not stated) -28.2%
Cc1ccc(NC(=O)c2cnc(SCC(=O)N3CCCc4ccccc43)n(C)c2=O)cc1 0.938%
O=C(CSc1nc2cc3ccccc3cc2[nH]1)Nc1ccc(F)cc1 -7.97%
O=C(NCCc1nc2ccccc2n1Cc1c(F)cccc1Cl)c1ccco1 23.8%
CC(=O)Nc1c(C)nn(-c2ccccc2)c1N1CCC(C(=O)NCc2cccc(Cl)c2)CC1 -9.71%
COc1cc(Cl)c(NC(=O)CCc2nc3cccnc3n2-c2ccccc2)c(OC)c1 6.66%
CCOc1ccc(NC(=O)CCNS(=O)(=O)c2ccc3c(c2)CCCC(=O)N3)cc1 6.84%
CC(=O)Nc1ccc(-c2nnc3n(Cc4ccc(C)cc4)c(=O)c4ccccc4n23)cc1 0.168%
COc1ccc(CNC(=O)CCc2c(C)c3cc4c(C)c(C)oc4cc3oc2=O)cc1 -2.03%
Cc1ccc(C(=O)Nc2nnc(S(=O)(=O)N3CCCCCC3)s2)cc1 -2.17%
CCOC(=O)CCC(=O)Nc1nnc2n1CCS2 22.6%
Cc1c(NC(=O)c2cc(-c3ccccc3O)on2)c(=O)n(-c2ccccc2)n1C 10.8%
CCCCc1nn2c(=O)cc(COC(=O)c3ccccc3NC(=O)c3cccs3)nc2s1 -8%
Cc1c(C(=O)N2CCN(c3ccc(F)cc3)CC2)sc2nc3n(c(=O)c12)CCC3 -6.07%
O=C(Nc1ccc(Cl)cc1Cl)c1cc(S(=O)(=O)N2CCCCCC2)ccc1F -6.98%
Cc1cc(C)cc(C(=O)n2nc(C)c(S(=O)(=O)N3CCCCCC3)c2C)c1 -4.75%
COc1ccc(Br)cc1C(=O)Nc1ccc(-c2nc3ncccc3o2)cc1C 0.459%
O=C(Cn1nc(-c2ccccc2)nc(Cc2ccccc2)c1=O)Nc1ccc(Cl)cc1 6.29%
Cc1cccc(NC(=O)Cn2nnc(C(=O)NCc3ccco3)c2N)c1 -0.922%
CC(C)Cn1c(C2CC(=O)N(c3ccccc3Cl)C2)nc2ccccc21 (configuration not stated) 1.43%
CCc1ccc(NC(=O)CSc2ccc3nc(-c4ccc(OC)cc4)cn3n2)cc1 -4.18%
CCN(CC)S(=O)(=O)c1ccc2c(c1)N(CC(=O)Nc1ccc(OC)cc1)C(=O)CS2 33.8%
CCOc1ccc(Cl)cc1CNCCCSc1nnnn1C 4.42%
c1cc(OCCN2CCCCC2)cc(-c2n[nH]c3ccc(-c4ncn[nH]4)cc23)c1 30.2%
Cc1ccc(CN(C(=O)COc2ccccc2[N+](=O)[O-])c2ccccn2)cc1 7.96%
CCC(CC)C(=O)Nc1nnc(S(=O)(=O)N2CCc3ccccc32)s1 -4.23%
O=C(NCc1ccccc1Cl)C1CCN(C(=O)N2CCOc3ccccc32)CC1 -10.3%
Cc1cccc(OCC(=O)NCCc2nc3ccccc3[nH]2)c1C 1.51%
CCCN(CCC)CCNC(=O)CN1C(=O)COc2ccc(S(=O)(=O)N3CCOCC3)cc21 -1.23%
COc1ccc(C(=O)NCC(c2ccc3c(c2)OCO3)N2CCOCC2)cc1 (configuration not stated) -5.43%
COc1ccc(C2=NN(S(C)(=O)=O)C(c3cn(-c4ccccc4)nc3-c3cccs3)C2)cc1 (configuration not stated) -4.07%
O=C(Cc1ccc(NC(=O)N2CCSc3ncccc32)cc1)NCc1ccccc1 10.5%
CC1(C)CC(=O)c2cc(C(=O)Nc3ccc(Br)cc3)c(=O)[nH]c2C1 4.24%
CCN(C(=O)C1CCC(CNS(=O)(=O)c2cccc3nsnc23)CC1)c1ccccc1 (configuration not stated) 2.11%
CCN(C(=O)C1CCC(CNS(=O)(=O)c2cccc3nsnc23)CC1)c1cccc(C)c1 (configuration not stated) 2.15%
Cc1ccc(Oc2nc3c(c(=O)n(Cc4ccccc4)c(=O)n3C)n2C)cc1C 8.49%
Cc1ccc(COc2ccc3oc(-c4ccccc4)c(C(=O)O)c3c2)cc1 -6.3%
Cc1ccc(NC(=O)c2ccc(=O)n(CC(=O)Nc3c(C)cc(C)cc3C)n2)cc1 2.51%
CCOc1ccc(C2N3CC4(C(C)C)CN2CC(C(C)C)(C3)C4=O)cc1OC (configuration not stated) -9.54%
CCOc1ccccc1NC(=O)N(C)CCc1c(C)nn(CC)c1C 3.5%
O=C1CCc2ccc(OCCCCN3CCN(c4cccc(Cl)c4Cl)CC3)cc2N1 -10.6%
CCN(C(=O)Cn1c(SCC(=O)Nc2ccc(OC)cc2)nc2ccccc21)c1cccc(C)c1 -11.5%
CC(C)(C)c1ccc(C(=O)NNc2ncnc3c2cnn3-c2ccccc2)cc1 -34%
O=C(COc1ccccc1)NCC(c1cccs1)S(=O)(=O)c1ccc(Cl)cc1 (configuration not stated) 1.88%
COc1ccc(C(=O)N2CC(=O)Nc3ccc(C)cc3C2c2ccccc2)cc1OC (configuration not stated) 0.475%
COc1ccc(-n2nc(C(=O)Nc3ccc(Br)cc3C)c3c4ccccc4n(C)c3c2=O)cc1 1.27%
Cc1ccc2nc(-c3ccc(C)c(NC(=O)Cc4ccccc4)c3)oc2c1 2.95%
Cc1ccccc1CN1CCc2nc(N3CCN(c4ccccn4)CC3)ncc2C1 -31.5%
Cc1cc(C)cc(NS(=O)(=O)c2ccc3c(c2)OCC(C(=O)N2CCCC2)O3)c1 (configuration not stated) 7.97%
COc1ccc2nc3oc(C(=O)Nc4cccc(C(F)(F)F)c4)cc3cc2c1 6.29%
CCOc1ccc(NC(=O)CN(Cc2ccccc2)S(=O)(=O)c2ccc(Cl)cc2)cc1 -17.6%
Cc1c(C2=CCN(S(=O)(=O)c3ccc(Br)cc3)CC2)c2ccccc2n1CC(=O)N1CCCC1 10.6%
Cc1cccc(Nc2nc(C)nc(N)c2S(=O)(=O)c2ccccc2)c1 17.6%
Cc1c(Cl)cccc1NC(=O)c1ccc(NC(=O)N2CCSc3ncccc32)cc1 5.94%
